Results reported in paper PMC4874542.
These are yes or no findings as the source states them, for the method shown. Binding seen in cells or lysates may run through a third protein.

B1: endogenous human Vps36 (protein, UniProt Q86VN1 1-386)
chain: MDRFVWTSGLLEINETLVIQQRGVRIYDGEEKIKFDAGTLLLSTHRLIWRDQKNHECCMAILLSQIVFIEEQAAGIGKSAKIVVHLHPAPPNKEPGPFQSSKNSYIKLSFKEHGQIEFYRRLSEEMTQRRWENMPVSQSLQTNRGPQPGRIRAVGIVGIERKLEEKRKETDKNISEAFEDLSKLMIKAKEMVELSKSIANKIKDKQGDITEDETIRFKSYLLSMGIANPVTRETYGSGTQYHMQLAKQLAGILQVPLEERGGIMSLTEVYCLVNRARGMELLSPEDLVNACKMLEALKLPLRLRVFDSGVMVIELQSHKEEEMVASALETVSEKGSLTSEEFAKLVGMSVLLAKERLLLAEKMGHLCRDDSVEGLRFYPNLFMTQS
B2: overexpressed human Vps36 (protein, UniProt Q86VN1 1-386)
chain: B1 chain

Target: HA-tagged Nipah virus C protein (NiV-C-HA) (Nipah virus) (UniProt Q997F1)
Experiment: co-IP; endogenous or overexpressed hVps36 with NiV-C or hVps28; no figure shown

Binder	binding
B1	no binding
B2	no binding
